One experiment relates to phospholipase D1. Kind of experiment: PLD activity in HCT116 cells ([3H]phosphatidylbutanol, TLC). In kind it is cell-based, human. To be noted: compound 10 μM, cells without the compound = 100%. The protocol:
To evaluate the inhibitory effect of the compounds according to the present invention on phospholipase D1 activity, experiments were conducted as follows.
For the analysis of PLD activity in cells, human colon cancer cell line (HCT116) was cultured in a 6-well plate at 37° C. for 24 hours, washed twice with phosphate-buffered saline (PBS), and then replaced with medium containing [^3H]myristate and cultured for 24 hours. After the culture, the cells were washed three times with PBS, treated with 1-butanol, and the drug was added to a final concentration of 10 μM. The cells were trypsinized and suspended, and the amount of [^3H]phosphatidylbutanol produced in the cell suspension was measured and evaluated for PLD activity using thin layer chromatography (TLC), and the results are shown in Table 1 below.
The Remaining activity % at 10 μM in Table 1 is calculated by setting the amount of [^3H]phosphatidylbutanol produced in cells without the compound as 100% and calculating the amount of [^3H]phosphatidylbutanol produced in cells treated with the compound as a percentage. Therefore, the lower the value of Remaining activity %, the higher the PLD inhibitory activity.

Experiment [1] relates to PLD1. Kind of experiment: PLD activity in mouse embryonic fibroblasts from normal, PLD1 knockout and PLD2 knockout mice. The format is cell-based. The following applies: different concentrations; PLD activity decreased first in PLD2 knockout fibroblasts.
The test system of experiment [2] is normal colon epithelial cells (FHC). Kind of experiment: Cell cycle analysis (BrdU/7-AAD flow cytometry) in normal cells. In kind it is cell-based. To be noted: compound 1-91 2 μM, 48 hours. The protocol:
(§1) To observe cell cycle changes, normal colon epithelial cells (FHC) and human colon cancer cell line DLD1 were treated with compound 1-91 at 2 μM and the positive control 5-FU at 10 μM. After 48 hours, the cells were washed with PBS, harvested, and sequentially treated with bromodeoxyuridine (BrdU) and 7-aminoactinomycin D (7-AAD). The cells were then stained with an anti-BrdU antibody conjugated with fluorescein isothiocyanate (FITC) and analyzed using a flow cytometer.
Background: Flow cytometry measures light scatter and fluorescence of single cells or particles in a stream.

Experiment [3] deals with human colon cancer cell line DLD1. The experiment is described as follows: Cell cycle analysis (BrdU/7-AAD flow cytometry) in cancer cells. The format is cell-based. The following applies: DLD1, compound 1-91 2 μM, 48 hours. The protocol:
as §1

In experiment [4] the test system is normal colon epithelial cells (FHC). Kind of experiment: Apoptosis (annexin V-FITC) in normal cells. In kind it is cell-based. The following applies: compound 1-91 2 μM, 48 hours. The protocol: (§2) To observe changes in apoptosis, normal colon epithelial cells (FHC) and human colon cancer cell line (DLD1) were treated with compound 1-91 at 2 μM and the positive control 5-FU at 10 μM. After 48 hours, the cells were washed with PBS, harvested, and analyzed for apoptosis using an annexin V-FITC apoptosis detection kit.

Experiment [5] concerns human colon cancer cell line (DLD1). The experiment is described as follows: Apoptosis (annexin V-FITC) in cancer cells. In kind it is cell-based. To be noted: DLD1, compound 1-91 2 μM, 48 hours. The procedure:
as §2

Experiment [6] has as its system AOM/DSS inflammatory colon cancer. Kind of experiment: Inflammatory colon cancer animal model (AOM/DSS model). The following applies: oral 10 mg/kg every other day for 45 days. The format is in vivo, C57BL6/N mice. The procedure: To establish an inflammatory colon cancer animal model, six-week-old C57BL6/N mice were intraperitoneally injected with azoxymethane (AOM) at 10 mg/kg on day 0, followed by administration of 2.5% dextran sulfate sodium (DSS) in drinking water for 5 days and a 15-day recovery period. This DSS cycle was repeated four times. To confirm the effects of the compound in the inflammatory colon cancer animal model, the compound was orally administered at 10 mg/kg every other day for 45 days. After the administration period, the animals were euthanized, and the small intestines were used to prepare paraffin blocks of the intestinal tissue using the Swiss rolling method. The sections were stained with hematoxylin and eosin (H&E).

For experiment [7], the system named is MC38 mouse colon cancer cells. The experiment is described as follows: Orthotopic colon cancer animal model (MC38 cells in cecum). In kind it is in vivo, C57BL6/N mice. The following applies: oral 10 mg/kg for 2 weeks from 7 days after implantation. The procedure:
To establish an orthotopic animal model, MC38 mouse colon cancer cells were implanted into the cecum of six-week-old C57BL6/N mice, as shown on the left side of FIG. 6a. For cell implantation, the mice were anesthetized with intraperitoneal injection of 2,2,2-tribromoethanol (avertin), and the cecum was exposed through laparotomy. MC38 cells prepared at 2×10^5 in 50 μL PBS were implanted. Starting from 7 days after cell implantation, compound 1-91 was orally administered at 10 mg/kg for 2 weeks to confirm the antitumor effects.

Experiment [8] addresses T1, PLD1 (Homo sapiens, UniProt Q13393).
T1 sequence (Q13393 1-1074): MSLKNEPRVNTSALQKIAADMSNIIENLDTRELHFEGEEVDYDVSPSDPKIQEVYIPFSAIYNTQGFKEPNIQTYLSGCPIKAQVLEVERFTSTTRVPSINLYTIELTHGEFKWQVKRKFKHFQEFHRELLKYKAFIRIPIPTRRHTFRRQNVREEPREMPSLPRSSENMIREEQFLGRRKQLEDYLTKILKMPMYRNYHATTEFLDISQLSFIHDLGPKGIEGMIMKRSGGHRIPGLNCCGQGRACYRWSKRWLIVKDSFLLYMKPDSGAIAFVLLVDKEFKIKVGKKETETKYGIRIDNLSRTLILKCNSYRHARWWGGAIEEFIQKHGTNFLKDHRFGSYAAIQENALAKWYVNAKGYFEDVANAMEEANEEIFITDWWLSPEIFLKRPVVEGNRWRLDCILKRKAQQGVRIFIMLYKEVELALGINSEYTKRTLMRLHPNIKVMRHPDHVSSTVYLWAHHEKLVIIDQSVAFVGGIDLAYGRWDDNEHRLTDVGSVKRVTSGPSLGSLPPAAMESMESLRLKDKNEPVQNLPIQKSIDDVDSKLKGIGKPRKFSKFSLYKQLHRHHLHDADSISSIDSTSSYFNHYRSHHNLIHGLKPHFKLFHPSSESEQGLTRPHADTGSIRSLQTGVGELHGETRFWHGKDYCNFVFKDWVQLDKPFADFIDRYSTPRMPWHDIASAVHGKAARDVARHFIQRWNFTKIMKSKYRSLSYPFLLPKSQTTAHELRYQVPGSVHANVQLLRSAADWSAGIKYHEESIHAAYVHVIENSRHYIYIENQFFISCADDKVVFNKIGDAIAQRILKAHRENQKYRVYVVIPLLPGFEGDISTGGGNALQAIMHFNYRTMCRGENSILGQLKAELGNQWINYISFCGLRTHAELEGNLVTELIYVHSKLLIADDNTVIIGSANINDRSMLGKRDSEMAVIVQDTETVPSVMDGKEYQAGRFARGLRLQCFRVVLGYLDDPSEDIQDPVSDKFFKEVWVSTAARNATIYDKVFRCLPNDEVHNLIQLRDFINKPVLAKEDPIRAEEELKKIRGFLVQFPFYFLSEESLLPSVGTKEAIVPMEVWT
The experiment is described as follows: PLD activity in HCT116 cells overexpressing PLD1. To be noted: 2 μM, HCT116 overexpressing PLD1, compared with VU0155069.

In the next experiment the target is PLD2 (Homo sapiens, UniProt O14939). Kind of experiment: PLD activity in HCT116 cells overexpressing PLD2. The following applies: 2 μM.

The structures appear in SMILES notation.

Sequence of PLD2 (O14939 whole entry, species assumed): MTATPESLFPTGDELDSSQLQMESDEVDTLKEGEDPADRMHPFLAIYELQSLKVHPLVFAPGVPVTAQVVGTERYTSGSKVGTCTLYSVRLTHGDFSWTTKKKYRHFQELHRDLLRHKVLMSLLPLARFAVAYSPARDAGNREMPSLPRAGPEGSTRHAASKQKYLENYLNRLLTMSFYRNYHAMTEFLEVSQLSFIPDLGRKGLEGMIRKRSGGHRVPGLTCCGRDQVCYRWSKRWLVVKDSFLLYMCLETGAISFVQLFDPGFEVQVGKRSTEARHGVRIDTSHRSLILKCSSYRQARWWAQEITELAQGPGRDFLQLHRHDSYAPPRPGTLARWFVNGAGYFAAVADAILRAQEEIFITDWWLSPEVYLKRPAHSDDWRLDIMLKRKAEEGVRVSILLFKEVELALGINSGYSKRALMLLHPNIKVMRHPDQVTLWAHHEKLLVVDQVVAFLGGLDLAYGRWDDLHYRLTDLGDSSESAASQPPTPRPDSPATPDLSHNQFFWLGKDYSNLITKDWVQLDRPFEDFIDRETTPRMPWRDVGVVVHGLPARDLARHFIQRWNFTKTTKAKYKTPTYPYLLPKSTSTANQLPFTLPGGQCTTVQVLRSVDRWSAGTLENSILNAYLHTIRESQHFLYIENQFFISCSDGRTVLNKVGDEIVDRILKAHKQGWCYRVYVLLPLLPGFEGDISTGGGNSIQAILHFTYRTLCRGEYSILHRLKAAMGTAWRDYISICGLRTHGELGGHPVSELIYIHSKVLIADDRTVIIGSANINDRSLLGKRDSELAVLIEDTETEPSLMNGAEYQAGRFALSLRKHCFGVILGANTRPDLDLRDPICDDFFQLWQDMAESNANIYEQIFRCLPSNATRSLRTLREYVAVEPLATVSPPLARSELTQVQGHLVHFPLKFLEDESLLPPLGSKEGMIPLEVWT

For `O=C(Nc1cc(C(F)(F)F)cc(C(F)(F)F)c1)c1cc2cc(F)ccc2[nH]1` [Example 1-91, N-(3,5-bis(trifluoromethyl)phenyl)-5-fluoro-1H-indole-2-carboxamide], in the experiment with phospholipase D1, the “Remaining activity % at 10 μM” value worked out at 20.62%. For the same compound, in the experiment with PLD1 [1], the “PLD activity, isoform specificity” value is listed as “specifically inhibits PLD1”. The “cell cycle arrest, normal cells” value in [2] was “only in cancer cells”. Moreover, the “cell cycle arrest, cancer cells” value in experiment [3] is on record as “specifically arrested the cell cycle at the G0/G1 phase only in cancer cells”. For the same compound, in experiment [4], the “apoptosis, normal cells” value is listed as “only in cancer cells”. Moreover, the “apoptosis, cancer cells” value in experiment [5] is “specifically and significantly induced apoptosis only in cancer cells”. In experiment [6], the “cancer tissues in H&E stained intestinal sections” value was “almost disappeared”, the incidence of tumors entry is “significantly reduced”, the size of tumors result is reported as “significantly reduced” and the survival entry is recorded as “significantly increased”. In [7], the survival result was “significant increase in survival” and the “tumor size in the cecum” value is “significantly reduced”. Besides, the PLD1 inhibitory effect result on PLD1 [8] is given as “equal to or greater than that of the positive control VU0155069”. For the same compound, the PLD2 inhibitory effect result on PLD2 is “no PLD2 inhibitory effect”.

The values are drawn from patent US20260138949A1, “NOVEL COMPOUND AS PHOSPHOLIPASE D INHIBITOR AND USE THEREOF” (UIF (UNIVERSITY INDUSTRY FOUNDATION), YONSEI UNIVERSITY, priority 2022, published 2026).
